Measured values reported in ChEMBL document CHEMBL4888484, “Replenishing the malaria drug discovery pipeline: Screening and hit evaluation of the MMV Hit Generation Library 1 (HGL1) against asexual blood stage Plasmodium falciparum ,using a nano luciferase reporter read-out” (2022).
Screen size: about 4,800 compounds; about 410 (8.5%) showed an effect of 50% or more. Some of the results follow.

The compounds below were run on Plasmodium falciparum (assay: Confirmatory screen in NF54 pLDH assay, in single point, at 2uM, 72h). Conditions: timepoint 72 hour.
Assay type: functional, Erythrocyte

Structure (SMILES) | % Inhibition
O=C(Nc1nc(-c2cccc3ccccc23)cs1)c1c(Cl)cccc1Cl | -25%
COc1ccc(-c2cnn3c(-c4ccccn4)ccnc23)cc1OC | 4%
CC(C)[C@@H]1CC[C@H](C)C[C@H]1OC(=O)Cn1cc(-c2ccc(Cl)cc2)[n+]2c1CCC2 | 75%
CC1CCC(C)(NC(=O)Nc2ccn(C(C)C)n2)CC1 (stereo not given) | -15%
COC(=O)C(C)CN1CCCC(n2ccc(C(F)(F)F)n2)C1 (stereo not given) | 8%
O=C1CCCC1C1COCCN1Cc1ncsc1Br (stereo not given) | 7%
O=C(NCc1cc(F)cc(F)c1)c1csc(C(=O)NC2CC2)n1 | -3%
O=C(COc1ccc(Cl)cc1Cl)Nc1onc2c1CCC2 | 16%
CCCn1c(C)ccc(-c2noc(CCC(=O)NC3CCCC3)n2)c1=O | -5%
O=C(Cc1cccs1)NC1CCN(c2nnc3ccc(Cl)cn23)CC1 | -10%
COc1ccc(Cn2nc(C)n(-c3cccc(F)c3)c2=O)cc1 | 12%
O=C(COc1nnc2ccccn12)NC1CCCCCC1 | 8%
Cc1ccccc1[C@H]1CCN(c2ccc(NC(=O)c3ccc(Cl)cc3)c(C(=O)O)c2)C1 | -17%
COc1ccsc1S(=O)(=O)N1CCC(n2ccnc2)CC1 | -14%
COc1ccc(N2CCN(C(=O)c3ccccc3Cl)[C@@H](C)C2=O)cc1OC | -8%
COC(=O)c1ccc(C)c(NC(=O)c2ocnc2C2CC2)c1 | 14%
COC(=O)[C@](Nc1ccc(Oc2ccccc2)cc1)(c1cc(C)c(O)c(C)c1)C(F)(F)F | 7%
Cc1nccc(N(C)C2CC(Oc3ccccc3)C2(C)C)n1 (stereo not given) | -12%
Cc1ccccc1[C@H]1CCN(c2ccc(NC(=O)c3ccc(F)cc3)c(C(=O)O)c2)C1 | -12%
CN(C)c1ccc2c(c1)CN(C(=O)c1ccccc1S(C)(=O)=O)CC2 | -5%
CCOc1cc(C(=O)Nc2ccc3nc4c(c(Nc5ccc(OC)c(OC)c5)c3c2)CCCC4)cc(OCC)c1OCC | 103%
Cc1noc(Cl)c1CC(=O)N1CCCC(C)(C)CC1 | 20%
O=S(=O)(c1ccc2c(c1)OCCO2)N1CCO[C@H](c2ccc(F)cc2)C1 | 11%
Cc1cccc(OCc2nn3c([C@H]4CCCN(S(C)(=O)=O)C4)nnc3s2)c1 | 6%
CC1(C)C(=O)NCCN1C(=O)c1cccc2ccccc12 | 14%

Structure (SMILES) | % Inhibition
Cc1cc(C(=O)N2CCN(C(=O)C(C)C)[C@@H]3CS(=O)(=O)C[C@@H]32)nc(C)n1 | -7%
COc1ccc(C(=O)N2c3ncnn3C(c3ccccc3)CC2c2ccc(C)cc2)cc1OC (stereo not given) | 98%
O=C(COc1ccccc1O)NC1CC1c1cccc(Cl)c1 (stereo not given) | 15%
COc1cc(C)c2[nH]c3c(c(=O)c2c1)CN(CC(=O)Nc1ccc2c(c1)OCO2)CC3 | 6%
Cc1ccc(CN2C(=O)[C@@H]3CCCN3c3ccc(C(F)(F)F)cc32)cc1 | -7%
Cc1cccc(-c2nc3nc(C)c(CC(=O)N4CCCCC4)c(C)n3n2)c1 | 7%
CC(C)c1cc(=O)n(Cc2ccccc2Cn2cnc(C(C)C)cc2=O)cn1 | -1%
O=C(CCc1ncc(-c2ccc(Cl)cc2Cl)o1)NC1(C(=O)O)CCCCC1 | -4%
OCC#Cc1ncc(C(F)(F)F)cc1Cl | -19%
COc1ccc(-c2nccn3cc(C(=O)NCC(C)C)nc23)cc1 | 5%
O=C1NC2(CCCCCCC2)C(=O)N1CN(C1CCCCC1)C1CC1 | 5%
CC(=O)NCC(=O)N(Cc1ccco1)C1(C(=O)NC2CCCCC2)CCCCC1 | 8%
c1cc2c(cc1[C@H]1NCCCCCCO1)OCO2 | -5%
Cc1cc(C)c(NC(=O)OCc2cccc3cccnc23)c(C)c1 | 80%
Cc1noc(C)c1C(=O)N[C@@H](CC(C)C)C(=O)OCc1ccccc1 | -2%
COc1ccc(CN(c2ccc(C)cc2)S(=O)(=O)c2ccc3nnc(C)n3c2)cc1 | -13%
CC(C)c1nccn1CCC(=O)Nc1ncn(C2CCCCC2)n1 | -5%
Cc1ccc(S(=O)(=O)Nc2ccc(Oc3ccc(NS(=O)(=O)c4ccc(C)cc4)cc3)cc2)cc1 | 11%
CCN(CC)C(=O)c1cnc2snc(C)c2c1N1CCC(C(=O)Nc2c(C)cc(C)cc2C)CC1 | 34%
COc1ccc(C)cc1-n1ccc(C(=O)N2CCCc3c(C(N)=O)cccc32)n1 | -4%
O=C(C1CCC1)N1CCC[C@H]1c1nc(C2CCOCC2)no1 | 12%
O=C(Nc1nncs1)NC(C1CC1)C1CC1 | 5%
CCOc1cc2c(cc1OC)[C@@H](N)CC2=O | 10%
O=C1c2cnccc2[C@](O)(c2ccccc2)N1Cc1ccccc1 | -22%
Cc1ccsc1NC(=O)OC(C)(C)C | 9%

Structure (SMILES) | % Inhibition
CNc1nccc(OCc2ccccc2)n1 | 9%
O=C(c1cccc2cc[nH]c12)N(CC1CC1)C1CC1 | 12%
Cc1sc2ncnc(N3CCCCC3)c2c1C(=O)Nc1cc(F)ccc1Cl | 8%
C[C@H]1CS(=O)(=O)N(c2ccc(C(=O)Nc3ccccc3Oc3ccccc3)c(Cl)c2)C1=O | -3%
COc1cccc(C(=O)N2CCC(c3nc(-c4ccc5c(c4)OCO5)no3)CC2)c1OC | 8%
COc1ccccc1C(=O)NC1=NN2C(=NC(c3ccc(Cl)cc3)=C[C@H]2c2ccc(Cl)cc2)N1 | 92%
Cn1c(Cc2n[n+]3c(-c4ccccc4)cc(-c4ccccc4)nc3n2C)n[n+]2c(-c3ccccc3)cc(-c3ccccc3)nc12 | 95%
COc1ncnc2c1CN(C(=O)NCC1(Cc3ccccc3)CCC1)CC2 | -1%
COc1ccc(CC[C@H](C)NC(=O)NCCCN2CCCC2=O)cc1 | 11%
CN(C(=O)NC1CCCC1)c1nc2c(s1)CN(Cc1ccccc1)C2=O | -13%
O=C(Cc1ncc(C(F)(F)F)cc1Cl)c1ccc(Cl)cc1Cl | -1%
C=CCNCc1cccc(OC)c1OCC(=O)NC(C)(C)C | 6%
CN1CCCN(c2ccc(NC(=O)c3nn(-c4ccccc4)c(=O)c4ccccc34)cc2F)CC1 | 68%
CCOC(=O)COc1ccc(C)cc1-c1ccno1 | 14%
CCOC(=O)c1nc(-c2ccc(N(CC)CC)nc2)no1 | 6%
Cc1nnc2ccc(S(=O)(=O)N(Cc3ccccc3F)c3ccccc3)cn12 | -16%
COc1ccc(CC[C@@H]2NCCn3cccc32)cc1 | -12%
Cc1ccc(S(=O)(=O)N2CCC(c3csc(N)n3)CC2)cc1 | -12%
O=C1CCC(Nc2ccc(Br)cn2)C(C2CC2)N1 (stereo not given) | 15%
CCOc1ccc(CCN2C(=O)c3c(C(=O)OC)ncn3C[C@@]2(C)C(=O)NC2CCCCCC2)cc1 | 12%
O=C(O)C1C2C=CC(O2)C1C(=O)NC1CCCc2ccccc21 (stereo not given) | -4%
CCOC(=O)C(Cc1ccc(OCc2c(F)cccc2Cl)cc1)(NC(C)=O)C(=O)OCC | 7%
Nc1cc(C(F)(F)F)c(Br)cc1Br | -14%
O=C(COc1ccccc1)Nc1ccc2c(c1)C(O)=Nc1cccnc1O2 | 64%
O=C(O)C1C2C=CC(C2)C1C(=O)Nc1cccc2ncccc12 (stereo not given) | 9%

Structure (SMILES) | % Inhibition
Cc1ccc(Nc2[nH]nnc2C(=O)N[C@H]2CCc3ccccc32)cc1C | 9%
O=C(Nc1ccccc1)N1CCc2scc[n+]2-c2ccccc21 | 7%
Cc1nc(-c2ccccc2)cc2nn(CC(=O)NC3CCCCC3)c(=O)n12 | -8%
O=C(NC1CC(c2ccccc2)C1)N1CCS(=O)(=O)CC1 (stereo not given) | -6%
Cc1ccnc(Nc2ccc(N3CCNCC3)nn2)c1 | 65%
CCOC(=O)N1CCC(NC(=O)c2cn[nH]c2-c2ccc(OCC)c(Cl)c2)CC1 | 10%
O=C(NCc1cccc(Br)c1)c1ccc(Cl)c(-n2cnc3cccnc32)c1 | 7%
Cc1cc(NC(=O)c2ccccn2)n(-c2nc3ccccc3o2)n1 | 93%
NC(=NCCOc1ccc(Br)cc1)N1CCOCC1 | 8%
Cc1ccc(NC(=O)CC(C)(C)CC2=Nc3ccccc3S(=O)(=O)N2)cc1F | 6%
Cc1cc(C(=O)NCC(=O)NC(C)(C)C)no1 | 12%
O=C(O)C1Cc2c([nH]c3ccccc23)C(/C=C/c2ccccc2)N1 (stereo not given) | 10%
CC(=O)c1cccc(NC(=O)[C@@]23CCC(=O)N2c2ccccc2C(=O)N3C)c1 | 88%
Cc1ccc([C@@H]2C=C(C(=O)O)Nc3c(C(N)=O)nnn32)cc1 | -12%
Cc1cc(C)c2nc(C)cc(Nc3ccc(O)cc3)c2c1 | 103%
NC(=O)c1nnn2c1C(=O)N[C@H](c1ccc(Cl)cc1)C2 | -13%
O=C(c1cnc2ccc(F)cc2c1N1CCN(c2ccccn2)CC1)N1CCCC1 | 8%
Clc1cc(CN2CC[C@@]3(CCCOC3)C2)ccc1OCCN1CCOCC1 | 11%
CCc1ccc(C(=O)N2CC[C@H](CC(=O)NCc3ccccc3)C2)cc1 | 10%
COc1cc([C@H](CC(=O)NC2CCN(Cc3ccccc3)CC2)N2Cc3ccccc3C2=O)cc(OC)c1OC | 28%
COc1cc(=O)c(C(=O)NCCN2CCCCC2)nn1-c1ccc(F)cc1 | 0%
O=C(c1cc2ccccc2[nH]1)N1CCc2sc(Cl)cc2C1 | 5%
Fc1ccc(C2=C[C@@H](c3ccc(Cl)cc3)N3N=C(c4ccc(Cl)cc4)NC3=N2)cc1 | 97%
CN(C)C(=O)[C@H]1CCN(c2nc3cc(C(F)(F)F)ccc3s2)C1 | -8%
CCCN(CCC)CCN1C(=O)[C@@H]2C(C(=O)Nc3cc(Cl)cc(Cl)c3)[C@@H]3C=C[C@]2(O3)C1C(=O)NC1CCCCC1 (stereo not given in full) | 50%
